Consider 73 sequences from article PMC10726135.

The list shows a part of the results. At the low end of the ranking, values are background and their order means little. The protein was read in a cell extract, so binding may be indirect.

The target of the assay is T1, HNF4alpha8 (COS-7 nuclear extract) (UniProt P41235-5).
T1 sequence: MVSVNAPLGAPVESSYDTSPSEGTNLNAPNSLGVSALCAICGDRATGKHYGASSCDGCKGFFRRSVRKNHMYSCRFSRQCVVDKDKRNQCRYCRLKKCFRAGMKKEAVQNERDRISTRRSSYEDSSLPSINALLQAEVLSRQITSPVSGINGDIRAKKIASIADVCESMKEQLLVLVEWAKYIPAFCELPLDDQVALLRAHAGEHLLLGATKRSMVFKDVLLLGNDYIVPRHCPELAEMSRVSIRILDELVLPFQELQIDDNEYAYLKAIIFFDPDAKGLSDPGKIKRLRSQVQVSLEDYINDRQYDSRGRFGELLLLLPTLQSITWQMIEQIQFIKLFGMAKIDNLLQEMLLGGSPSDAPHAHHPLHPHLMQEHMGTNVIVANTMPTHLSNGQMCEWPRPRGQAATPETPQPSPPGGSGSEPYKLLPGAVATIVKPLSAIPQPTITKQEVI
As to the kind of experiment: protein-binding microarray. The note with it: COS-7 nuclear extract on double-stranded Agilent 4x180k PBM; binding buffer, salt, pH and temperature not given; high values mean tight binding; double strand, one strand shown; sequences stand for … in …GCCTAGGGAGATTAGAGTATCGGTCGA
On to TTCATAGGTCCTCTTGGAAGATGCCTTTTT, for which the binding signal (log2 normalized intensity) came out at 0.936.

As to AATTGAGATAAACATGAAACAGTCACAGTT, the binding signal (log2 normalized intensity) was -1.28.

For the sequence GCCCCGAGATAACCCCTCTCCAAGCCAGAA, the binding signal (log2 normalized intensity) amounted to 4.01.

On to CGAGAGAGCCTGGACACACGAATAATGGAG, for which the binding signal (log2 normalized intensity) was -1.37.

For AGGGTTGGAATGTCTTTGGGTGGAGGGGAG, the binding signal (log2 normalized intensity) was -0.87.

For TAAACAGTGACTCATGCAAGCCTGAGGGAG, the binding signal (log2 normalized intensity) is -1.28.

Regarding AAACCTGGTAGCGTGTAGTAAAGCTCATGA, the binding signal (log2 normalized intensity) was -0.83.

AAGCAAACATACTGCTTATTTAAATTTCTT: the binding signal (log2 normalized intensity) was -1.34.

GCTCTCCGTGGACTTTGCCCCCTACAGTTT: the binding signal (log2 normalized intensity) is 10.5.

For GACATTCAATTGCAAGCTTATCTTCCCAGG, the binding signal (log2 normalized intensity) was -1.14.

Turning to TAATTCTTCAAAGGAGTGGAGGAAGGAAGA, the binding signal (log2 normalized intensity) was -1.35.

On to GGAATGAAAGGAGGTCATGTACATGAAAGC, for which the binding signal (log2 normalized intensity) was determined as 1.28.

As for TGAATGTCCAACTTGCCCTGGTCTCACATC, the binding signal (log2 normalized intensity) is 1.37.

Take CACGTGGCTAGATTGCAACCAAGTCCATCT: the binding signal (log2 normalized intensity) is 0.894.

AGCACCTGAAGAATTTGGACTTTGCACTAA: the binding signal (log2 normalized intensity) came out at 9.19.

CGGCTGGTATCCACAGGAGGCCCCATCGCA: the binding signal (log2 normalized intensity) is -1.25.

Turning to AATGGCAGACTAAACTCACAATGGGGCATG, the binding signal (log2 normalized intensity) is -1.33.

For TTGGACAGAGTTTGTGGTGTTTGTGGCATT, the binding signal (log2 normalized intensity) is 2.05.

With AAGGTCAATCTGGATTGTACTGTGTCTTGA, the binding signal (log2 normalized intensity) worked out at 2.68.

For GCTACACAGATAAGCCATTCGTAACCTTCA, the binding signal (log2 normalized intensity) is -1.34.

As for CTTCGGCCAGCACAGGAGGCCTCTCAAAGC, the binding signal (log2 normalized intensity) was -1.31.

For the sequence TGTTATCTCAGTAGACTAACGTATGGACTT, the binding signal (log2 normalized intensity) was 3.41.

For the sequence GCAACTACTCTCTCTTCTGGAGGAGGATCA, the binding signal (log2 normalized intensity) is -1.28.

TAGGTATGCCCCATGGTAAGAACTACAGTT: the binding signal (log2 normalized intensity) was found to be 1.21.

Regarding AGACCCTCTTTTCTTTGTACCGTATTTCAG, the binding signal (log2 normalized intensity) amounted to 1.49.

Turning to CATCCTGAACAAATGTACTGGATATAGCCA, the binding signal (log2 normalized intensity) is -1.19.

For the sequence TTCTGGAGGATTAGTGGGAGATAAGGTGGA, the binding signal (log2 normalized intensity) was -0.593.

Consider TCTTAGGAAAGCACAGCTGATTGCTCAACC, for which the binding signal (log2 normalized intensity) is -1.3.

As for TTGCCATGACCTTTGAAGCCCAGAACACTC, the binding signal (log2 normalized intensity) is 4.51.

With CCCAGCGGAAGTCCAGTGGTGTCTTACCGG, the binding signal (log2 normalized intensity) turned out to be 0.509.

For the sequence TGGTTCCTGGAAAAGTCTCAGGGGCCTTGC, the binding signal (log2 normalized intensity) was -1.08.

TCTCGGCCTTAAGAGTCAAAGGGCAAAGGA: the binding signal (log2 normalized intensity) was determined as 3.71.

Regarding TGGGATGGAACAAGGTCCCATGCACTGGCC, the binding signal (log2 normalized intensity) is -1.2.

Turning to GGAACTATTGGATTCCCCAATGCAGTACTA, the binding signal (log2 normalized intensity) is -0.208.

Consider TGCATTCCTGTCCACCCTGAAAGAGAGGAG, for which the binding signal (log2 normalized intensity) is -1.35.

In the case of GCAGCTTGGGAGCAATTTAGCAGCACCATC, the binding signal (log2 normalized intensity) was -1.48.

In the case of ACTGAACATACAGGGTCTAGCAGTGCAGCG, the binding signal (log2 normalized intensity) is -1.31.

Take GGTCAAAGTACATCCCCTAAAACATCAAAT: the binding signal (log2 normalized intensity) was found to be 3.45.

Consider GATTGCAACCAAGTCCATCTGTATTGCCTC, for which the binding signal (log2 normalized intensity) amounted to 0.673.

In the case of CTGTGAAGCACATCCTGTTCTAGCTCGGGG, the binding signal (log2 normalized intensity) is -0.931.

CCAGGCTGAAGTGGCCCAAGATGGAGATGA: the binding signal (log2 normalized intensity) was -1.32.

Take ATTGTGATGTGTGCGTTCATCTCACAGAGT: the binding signal (log2 normalized intensity) was 0.112.

As for TCAAAGGGCTTAATCTTTCCTGCCTGCCGG, the binding signal (log2 normalized intensity) was -1.32.

Consider TTTCTATGTGACCTTCACCCTGCTGTAAAT, for which the binding signal (log2 normalized intensity) was determined as 4.48.

For the sequence GTCCTTAAGATCCAAAGGAGTGGTCCTGCT, the binding signal (log2 normalized intensity) is -1.34.

On to GATCTAATGCACCCAGAACCCCCAGGTCAC, for which the binding signal (log2 normalized intensity) turned out to be 4.89.

ACCTGTTCAGCCAGATTCTCTCACTGCTCT: the binding signal (log2 normalized intensity) is -1.27.

In the case of TGGACCACGTGGCTAGATTGCAACCAAGTC, the binding signal (log2 normalized intensity) was -1.36.

Take TTCCATTGAAGCAGAGTGTCCCATATCACA: the binding signal (log2 normalized intensity) worked out at 0.828.

CCCACAAAGCCTAAAATATTCACTATCTGA: the binding signal (log2 normalized intensity) is -1.26.

Turning to AAGATTCCTGCTCTAATGTTCCTTATCAGA, the binding signal (log2 normalized intensity) is -1.4.

In the case of TCTTGGCTTCTCTTGGACCTCAATGTGCTC, the binding signal (log2 normalized intensity) worked out at 2.43.

On to TGTAGCTAAAATGTTAATGATTACTAGAGA, for which the binding signal (log2 normalized intensity) was -1.28.

As for TTCAGAGGCAGGGACTGAGGAATCTGGCTG, the binding signal (log2 normalized intensity) was -1.3.

Turning to CGCCGAGCAGGCACCCCGGGAGCGCCGAGC, the binding signal (log2 normalized intensity) was -1.33.

For AGAAAGAAGAGACAGCTGGGCCCTGCCTGA, the binding signal (log2 normalized intensity) was -1.4.

Regarding GGCATTCTTAACAAAACCTGTTTAGGATTA, the binding signal (log2 normalized intensity) is -0.902.

ACCAGAGGCTGAAGTGAAGTTACAAAGGTC: the binding signal (log2 normalized intensity) stood at 6.12.

For the sequence GGGCGAGAGAGTTCTATGGGATGACCTTTG, the binding signal (log2 normalized intensity) stood at 6.82.

ACGTTTCTGTGGTCAGGGCCTTTCCAGCAA: the binding signal (log2 normalized intensity) was -0.895.

Regarding AAACAGATGTTGGTGGGAGGATTTCTTCAT, the binding signal (log2 normalized intensity) is -1.13.

In the case of CACTACTCCAGGGAGAAACCTGCCAGGTGG, the binding signal (log2 normalized intensity) is -1.34.

Take CCTCAGCCGGGAGAGGAGGCCCCCTGAGGC: the binding signal (log2 normalized intensity) amounted to 2.29.

For CGGTTTTAGGACAACATGAGTAAACGAGCT, the binding signal (log2 normalized intensity) was -0.78.

Regarding AAAAAGCTCTGCCTACGCATGCATTCCAGT, the binding signal (log2 normalized intensity) is -1.4.

AGATGATGAGGCGGTTCATCCAACAGGTGA: the binding signal (log2 normalized intensity) is -1.19.

For TTCACTTCCCTATCCCGCTGCTTCCACCAG, the binding signal (log2 normalized intensity) was -1.23.

Consider GTTTCTCAAGTGATCGAAGGTCAACTTATC, for which the binding signal (log2 normalized intensity) is 4.63.

On to GGTTAATGATTATGCCTCTGTGACCTATAA, for which the binding signal (log2 normalized intensity) came out at 3.19.

On to CAAAGTCCCCTGAGCTTGAGTCCATCCCAT, for which the binding signal (log2 normalized intensity) worked out at 2.7.

Take AACTCAGGGTCTGGTTCCAAAGTCTGCAGA: the binding signal (log2 normalized intensity) was 3.57.

On to TGGGGATCAAAGCGTATGGGAGGGCTATTT, for which the binding signal (log2 normalized intensity) is -0.88.

As for ACTCCTACAATTGCTGGTCCCTTTCAAAAC, the binding signal (log2 normalized intensity) worked out at 0.174.
